Drawing on the antibiotic and cytotoxicity screens of Wong et al. (2023), this text covers cytotoxicity call and growth inhibition call for 25 compounds.

The other results are listed elsewhere or left out.

In one assay the test system is HSkMC. Nature of the assay: cytotoxicity call (relative viability < 0.9). To be noted: 10 µM.
The test system of another assay is HepG2. Kind of assay: cytotoxicity call (relative viability < 0.9). The conditions noted are these: 10 µM.
A further assay relates to S. aureus RN4220. Kind of assay: growth inhibition call (relative growth <= 0.2). The conditions noted are these: 50 µM.

With `COc1ccc(COC[C@]23N=C4SCc5ccccc5C(=O)N4[C@H](c4ccccc4O2)[C@H]3COC(=O)c2ccccc2)cc1`, the cytotoxicity call in the assay with HSkMC and with HepG2 was “inactive” each time. Further, in the assay on S. aureus RN4220, the growth inhibition call is “inactive”.

`COc1cc(N2CC[C@H]3O[C@@H](C(=O)NCCN(C)C)C[C@H]32)ncn1`: the cytotoxicity call with HSkMC and in the assay with HepG2 was “inactive” each time. Besides, the growth inhibition call with S. aureus RN4220 was “inactive”.

With `COC(=O)[C@H]1CCNCCC1=O`, the cytotoxicity call with HSkMC and in the assay with HepG2 was “inactive” each time. The growth inhibition call in the assay with S. aureus RN4220 was “inactive”.

`O=C(C[C@@H]1CC[C@H]2NC[C@@H](O)COC[C@@H]2O1)NCCN1CCCCC1`: the cytotoxicity call in the assay on HSkMC and with HepG2 was “inactive” in each case. Moreover, the growth inhibition call with S. aureus RN4220 was “inactive”.

As for `C[C@@H]1CN([C@H](C)CO)C(=O)c2cc(NC(=O)Nc3ccc4c(c3)OCO4)ccc2O[C@H]1CN(C)Cc1ccc(C(F)(F)F)cc1`, the cytotoxicity call in the assay on HSkMC and with HepG2 was “inactive” throughout. The growth inhibition call with S. aureus RN4220 is “inactive”.

In the case of `COc1ccc(NC(=O)Nc2ccc3c(c2)C(=O)N([C@@H](C)CO)C[C@H](C)[C@@H](CN(C)CC2CC2)OCCCC[C@H](C)O3)cc1`, the cytotoxicity call in the assay with HSkMC and in the assay on HepG2 was “inactive” in each case. In the assay on S. aureus RN4220, the growth inhibition call is “inactive”.

As to `Cc1csc2c(N3CCC(Cn4cc(C(C)(C)N)nn4)CC3)ncnc12`, the cytotoxicity call in the assay with HSkMC and in the assay on HepG2 was “inactive” each time. Moreover, the growth inhibition call in the assay on S. aureus RN4220 is “inactive”.

For the compound `C[C@H](CO)N1C[C@H](C)[C@H](CN(C)C(=O)C2CCCCC2)OCCCC[C@H](C)Oc2ccc(NS(=O)(=O)c3ccc(F)cc3)cc2C1=O`, the cytotoxicity call in the assay with HSkMC and in the assay on HepG2 was “inactive” in each case. For the same compound, the growth inhibition call in the assay on S. aureus RN4220 is “inactive”.

On to `O=C(CCO)c1ccc(O)cc1`, for which the cytotoxicity call in the assay with HSkMC and in the assay with HepG2 was “inactive” throughout. In addition, the growth inhibition call with S. aureus RN4220 was “inactive”.

For the compound `C[C@H](CO)N1C[C@H](C)[C@H](CN(C)Cc2ccc(C(F)(F)F)cc2)OCCCC[C@H](C)Oc2ccc(NS(=O)(=O)c3ccc(F)cc3)cc2C1=O`, the cytotoxicity call in the assay on HSkMC and with HepG2 was “inactive” throughout. Further, the growth inhibition call in the assay on S. aureus RN4220 was “inactive”.

For the compound `COc1ccc(S(=O)(=O)N(C)C[C@H]2Oc3ccc(NS(=O)(=O)c4ccc(C)cc4)cc3C(=O)N([C@H](C)CO)C[C@@H]2C)cc1`, the cytotoxicity call with HSkMC and in the assay with HepG2 was “inactive” in each case. Also, the growth inhibition call with S. aureus RN4220 was “inactive”.

For the compound `C[C@H]1CN([C@@H](C)CO)C(=O)Cc2cc(NC(=O)CCCN(C)C)ccc2O[C@H]1CN(C)S(=O)(=O)c1ccc(Cl)cc1`, the cytotoxicity call in the assay on HSkMC and with HepG2 was “inactive” throughout. For the same compound, the growth inhibition call in the assay on S. aureus RN4220 was “inactive”.

Consider `Cc1ccc(S(=O)(=O)Nc2ccc3c(c2)C(=O)N([C@H](C)CO)C[C@@H](C)[C@H](CN(C)C(=O)Nc2ccc(F)cc2)OCCCC[C@H](C)O3)cc1`, for which the cytotoxicity call in the assay with HSkMC and in the assay with HepG2 was “active” each time. For the same compound, the growth inhibition call in the assay on S. aureus RN4220 is “inactive”.

Take `C[C@H](CO)N1C[C@H](C)[C@H](CN(C)C(=O)Nc2ccc(C(F)(F)F)cc2)Oc2ccc(NC(=O)Nc3ccc(C(F)(F)F)cc3)cc2C1=O`: the cytotoxicity call with HSkMC and with HepG2 was “inactive” each time. In the assay on S. aureus RN4220, the growth inhibition call was “inactive”.

For the compound `C[C@H](CO)N1C[C@H](C)[C@@H](CN(C)Cc2ccc(Cl)c(Cl)c2)Oc2ccc(NC(=O)Nc3ccc(F)cc3)cc2CC1=O`, the cytotoxicity call with HSkMC and with HepG2 was “active” each time. Also, in the assay with S. aureus RN4220, the growth inhibition call is “inactive”.

As to `C[C@@H]1CCCCO[C@H](CN(C)S(=O)(=O)c2cn(C)cn2)[C@H](C)CN([C@@H](C)CO)C(=O)c2cc(NC(=O)CCCN(C)C)ccc2O1`, the cytotoxicity call in the assay on HSkMC and in the assay with HepG2 was “inactive” throughout. Also, the growth inhibition call in the assay with S. aureus RN4220 was “inactive”.

On to `Cc1noc(C)c1NC(=O)N(C)C[C@@H]1Oc2c(NC(=O)Nc3cccc4ccccc34)cccc2C(=O)N([C@@H](C)CO)C[C@H]1C`, for which the cytotoxicity call with HSkMC and in the assay on HepG2 was “inactive” each time. For the same compound, the growth inhibition call in the assay on S. aureus RN4220 was “inactive”.

With `CC(C)CC#Cc1cnc2c(c1)C(=O)N([C@@H](C)CO)C[C@@H](C)[C@H](CN(C)C(=O)c1ccc3c(c1)OCO3)O2`, the cytotoxicity call in the assay with HSkMC and in the assay on HepG2 was “inactive” in each case. In the assay on S. aureus RN4220, the growth inhibition call is “inactive”.

As to `C[C@H]1CN([C@@H](C)CO)C(=O)Cc2cc(NC(=O)CCC(F)(F)F)ccc2O[C@@H]1CN(C)S(=O)(=O)c1cccs1`, the cytotoxicity call with HSkMC and with HepG2 was “inactive” each time. For the same compound, in the assay on S. aureus RN4220, the growth inhibition call was “inactive”.

As to `COc1ccc(NC(=O)Nc2ccc3c(c2)CC(=O)N([C@@H](C)CO)C[C@H](C)[C@H](CN(C)Cc2ccc(Cl)c(Cl)c2)O3)cc1`, the cytotoxicity call in the assay on HSkMC (human skeletal muscle cells) and in the assay with HepG2 was “active” in each case. In addition, in the assay with S. aureus RN4220, the growth inhibition call is “inactive”.

Take `COc1ccc(S(=O)(=O)Nc2ccc3c(c2)CC(=O)N([C@H](C)CO)C[C@@H](C)[C@@H](CN(C)S(C)(=O)=O)O3)cc1`: the cytotoxicity call in the assay with HSkMC and in the assay on HepG2 was “inactive” each time. Also, the growth inhibition call in the assay with S. aureus RN4220 is “inactive”.

As for `COC(=O)[C@H]1CCc2nc[nH]c2C1`, the cytotoxicity call with HSkMC and with HepG2 was “inactive” throughout. In the assay with S. aureus RN4220, the growth inhibition call was “inactive”.

With `C[C@H](CO)N1C[C@H](C)[C@@H](CN(C)S(=O)(=O)c2cn(C)cn2)Oc2ccc(NS(C)(=O)=O)cc2C1=O`, the cytotoxicity call in the assay with HSkMC and in the assay with HepG2 was “inactive” in each case. In addition, in the assay on S. aureus RN4220, the growth inhibition call is “inactive”.

As for `CC(C)NC(=O)N(C)C[C@H]1Oc2cc(C#Cc3ccc(F)cc3)ccc2S(=O)(=O)N([C@H](C)CO)C[C@@H]1C`, the cytotoxicity call in the assay with HSkMC and in the assay with HepG2 was “inactive” each time. Besides, the growth inhibition call in the assay with S. aureus RN4220 is “inactive”.

Take `COc1ccc(NC(=O)Nc2ccc3c(c2)C(=O)N([C@@H](C)CO)C[C@@H](C)[C@@H](CN(C)C(=O)c2ccccc2)OCCCC[C@H](C)O3)cc1`: the cytotoxicity call in the assay with HSkMC and in the assay with HepG2 was “inactive” throughout. Also, in the assay on S. aureus RN4220, the growth inhibition call was “inactive”.
